# This is one part of the list.
# System: PfSIP2 AP2 domain 1 (GST-tagged)
# Test: gcPBM binding intensity (ln(normalized median fluorescence intensity)); higher = stronger DNA binding
# Summary of the method: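 Each value is the highest Masliner-normalised natural-log median intensity across replicate spots of either orientation of a probe. The probes were primer-extended double-stranded 36-bp intergenic genomic sequences on an Agilent 4 × 180k array, alongside negative controls, exposed for 1 h to GST-tagged P. falciparum DNA-binding domains expressed in E. coli. Bound protein was picked up with Alexa488 anti-GST antibody and scanned at 488 nm.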
row,Sequence,gcPBM binding intensity (ln)
1,AAAAAAAAAAAAATACGTACACAAAAAATTGCAAAG [XGTACX_site5663],7.46
2,AATATATTAAAAAAGCGTACAAGAATTGGAAAATGG [XGTACX_site6576],7.46
3,TGTATAACCTGTGTTACACACATTAAAATTTATATA [CACACA_site4449],6.88
4,ATAAATGTGTTTATTTAACACACAAAAGAAAAAATA [CACACA_site8589],6.88
5,GTATCAAAAGAATACACACACACATACCTATAAATA [CACACA_site7737],7.04
6,AAAGGAAAAAAAGTAGCACACAAATATTTATAATAT [CACACA_site8772],6.93
7,CATACATAAATATAAACATGCATATATTTTTTTTAT [TGCATGCA_site616],6.8
8,TGATATCTTAAGAAATGTACAAAGATATAACCATTT [XGTACX_site1913],6.74
9,ATTTTAATAAAATATGTACACACATACACCCATATA [CACACA_site8326],7.34
10,TAAATAAAAAAAAATACACACATCTATATAAAATAT [CACACA_site3774],6.76
11,TAGGAGAAAAAAAAAAGTACCCACAACTATTATACT [XGTACX_site8195],6.85
12,TGGTAATATCGATTCACACATATCAAAATAAAAAAA [CACACA_site4196],7.11
13,AACATATTAATGTACACACACCCACGCACAAACAAA [CACACA_site7320],7.52
14,TTATAAGATTTATGTACACACATATACACAGCTCTA [CACACA_site6481],7.12
15,AGTATTATATATATATGTACATAATATACATATATA [XGTACX_site8514],7.07
16,TCCTAATGCTACCACACACACAAAAACAAATAATAA [CACACA_site2610],7.49
17,GCTATAAATACAGACGCACACATATACATACAGATA [CACACA_site5778],7.47
18,TGTTATTAGAAAAATGCACACCAAAAAAAAAAAAAA [CACACA_site8802],7.59
19,ATATACATAATATATAATATAAATATATATATGGAA [CACACA_negctrl_site906],6.74
20,TATTAAAATATTTATACACACATAATTTTGATAAAT [CACACA_site4486],6.75
21,TGTCATTCCTCTTATTGTACAAAAATATTATAATAT [XGTACX_site1134],7.5
22,ATGGAACTTAAAAATTGTACACATAAAATGGAGAAG [XGTACX_site1823],7.36
23,GTTATACGCATCAACACACACATACAACGTGGTGTA [CACACA_site1188],7.06

row,Sequence,gcPBM binding intensity (ln)
1,TAATTAATTTACATTTTAATTTTATACAAAATTTAT [CACACA_negctrl_site830],6.7
2,ACATATTTATATTCTACACACTTATACTATAATACA [CACACA_site7204],7.15
3,AATATATATATTAAATGTACATTACATAATTATATA [XGTACX_site3450],7.06
4,TAAATGAAAATATGTACACACTTGAAAACTTTTATG [CACACA_site7388],6.88
5,TGCAACAAAATAAACACACACACACTAGCACAAAAA [CACACA_site5805],7.1
6,TTTTTTTTTTTAGACACATGCATTTTTATAATTTTC [TGCATGCA_site843],6.78
7,TATATATATTAACTTGTGCGCAAAAAGATATAATTT [GTGCAC_site9672],7.53
8,AATATTTTGATGTGTACACATTAATACAGTTTTACA [CACACA_site5711],7.2
9,TAGGATATTGAATAATGTACTTTATATATAATATAA [XGTACX_site7828],6.9
10,ATATGTATGTATGTCTCAAAATTTCATATTATATTA [CACACA_negctrl_site784],6.64
11,AAGAAATAAAAAAAACGTACATATATACATACATAC [XGTACX_site3980],7.9
12,AAAAACGAAAAAAATACACACCTGAAAAGATATGTA [CACACA_site4644],6.66
13,GTATATATGTATATGTGTACATATATTTTATAATAT [XGTACX_site5703],7.28
14,AGATCATAATATTATACACACATTATATATATGTAA [CACACA_site8419],7.01
15,TGGAAAGTTATTAACACACACATATAAATATTTATA [CACACA_site6173],6.98
16,GGAATAACCAGACACACACACACATATATATATATA [CACACA_site3541],9.12
17,TATATATAATATTATACACACATATCTGCATAATAT [CACACA_site4202],7.37
18,AAAAACCATTCGCACACACACATAATCTATAATATA [CACACA_site6782],7.34
19,AAGTACCATATAGGCACACATATATATATATATATA [CACACA_site3282],9.71
20,TCCAATTCTTTATTTTGTACACATTATGTGCATATG [XGTACX_site6290],7.29
21,GTTGTTATATAAAGGAGTACATAATAACACAAATAT [XGTACX_site615],7.45
22,TTTTCTTGTAGTATAACAAAATATAGTAATATATAT [GTGCAC_negctrl_site609],7.39
23,AAAAAAAAAAAAAAAACACACATTTATAGTATATAT [CACACA_site1194],7.57

row,Sequence,gcPBM binding intensity (ln)
1,GATTTATTTCATATCACACATTTTGGCTATTTTGTG [CACACA_site5793],6.88
2,AATCCTTCATATGTAGTGCATATTAACAAAATAAAA [GTGCAC_site9500],8.78
3,ATGAAATATTTATTTGTGCACTTAATTTGTTGGAAA,10.4
4,CCATTTGGTATTATATGTACATATAATTTTTTTTTT [XGTACX_site157],7.02
5,ATTATCCATGCATTTACACACACACCCAAAAAAATT [CACACA_site4101],7.9
6,AAAGGGGCATATATATGTACATATTATATATTTTGA [XGTACX_site2436],7.27
7,AATACATTGTCAAATTGTACAAATTATAGAACTATT [XGTACX_site2222],6.97
8,CCATAAAAAGGATACACACACACACCCACATATATA [CACACA_site903],7.18
9,TGTTTTTATATATATGCACACAATGTACAAGTATAC [CACACA_site3529],7.6
10,TTATATATAAACATAAAAAGAAATATATTATGTATA [CACACA_negctrl_site667],6.85
11,AAAGTCTCATTAAAATGTACAAAATTTTCAGCTGTA [XGTACX_site6296],6.71
12,TATGTGAATATAATCACACACAATACGGAAACCCAC [CACACA_site2725],7.37
13,TAATTTTTAATTGTAGCATGCAGTATTTTTAAATAT [TGCATGCA_site140],7.06
14,ATATTTAATGTTAATTGTACATATTATATATATATA [XGTACX_site6095],9.06
15,GATTATACAAAATATACACACGTGTAGACAAATATT [CACACA_site4785],7.15
16,ATAATATTATTATAATGTACATATTTCGATATAAAT [XGTACX_site8808],7.1
17,AAAAAAATATATATTACACACATATATACCTATATA [CACACA_site5688],7.01
18,ATATATATTAATAGGTGTACATATAAAGTGTTATGT [XGTACX_site5464],7.34
19,TAATAATGCAACCTCTGTACACAACATTATATCCAT [XGTACX_site7596],7.31
20,AAAAAAAAATTTTTAAAATTTAGAAAATTTAAAAAA [GTGCAC_negctrl_site649],6.64
21,TATATATAAGCGTGTACACATTCTGAGTGTTGTATA [CACACA_site4502],7.22
22,ATTGTCTTCTCATATACACACTTTTATGACTATCTT [CACACA_site5696],7.24
23,TGTGTAATTATATATAAGGAGAAAGAATTCATTTTT [CACACA_negctrl_site670],6.77

row,Sequence,gcPBM binding intensity (ln)
1,TATTGAAGTTATAAAGTGCAGATAAATATGAGTTAT [GTGCAC_site9945],7.81
2,ACAAAAAATAATCAAAATGTATATATATAATATAAT [XGTACX_negctrl_site593],7.08
3,AAATGCCATATAATTTTTCTTAAACATAATTGTATA [CACACA_negctrl_site1665],6.77
4,AACAAATAAACAAAATTGGAAAATAAAAATATCAAA [CACACA_negctrl_site1125],6.64
5,TCGTATATGGATTTTGCACACAATTTTAATTTAAAT [CACACA_site4635],7.51
6,ATGATTTGTCTGAAATGTACATATATATATATATAT [XGTACX_site5247],9.47
7,TTTTTTTTTTTTTTAATTAATTACCTTTGAATGTGT [CACACA_negctrl_site393],6.92
8,TAATAATTTTATAAAGTGCATAAAAATAAAAATTTT,8.89
9,ATTATTTTTTTATGTTGTACATAATATTTTTTAAAA [XGTACX_site1666],7.27
10,ATATATATGGATGGACGTACGTATGTATGTAATTTC [XGTACX_site4135],7.21
11,TTCCAACATTGTTTTTGTACATAATTAACTGTTATT [XGTACX_site5224],7.27
12,CTTAAAAATAACTGCACACAAAAATAAATACCTTAT [CACACA_site2793],7.18
13,TAATATTTATAAAATAGTACACAGAAAAAGCATTTT [XGTACX_site8948],6.97
14,GAAAAAATATATAAATGTACATATAATAATATCATA [XGTACX_site6788],6.95
15,ATATATATTTTATTATGTACATATAAATATTACACA [XGTACX_site4062],7.18
16,ATAATAAGGTTAAGCACACATATTACAGATATAACT [CACACA_site5791],6.9
17,AAATATTATGTGGCAAGTACATAAAGAAAATGCTTA [XGTACX_site3356],6.84
18,AATAATAATAATAATAGTACATATTATGAATATGAT [XGTACX_site5730],7.11
19,GATCTACATGAAAGGACACACAAATATATATATATA [CACACA_site84],9.43
20,ATAAATATGGAGCACACACACATAAACATACCTATA [CACACA_site6336],7.18
